We go through 24 compounds from PMC4336329 (PLoS ONE, 2015).

The campaign covered roughly 310,000 compounds. About 14,000 (4.5%) showed an effect of 50% or more. Effects have a minus sign here. The list shows a part of the results.
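Further: peak tail current of the secondary pulse compared with the same well before compound.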

Sequence of human ether-à-go-go-related gene (hERG) potassium channel (Q12809 whole entry, looked up): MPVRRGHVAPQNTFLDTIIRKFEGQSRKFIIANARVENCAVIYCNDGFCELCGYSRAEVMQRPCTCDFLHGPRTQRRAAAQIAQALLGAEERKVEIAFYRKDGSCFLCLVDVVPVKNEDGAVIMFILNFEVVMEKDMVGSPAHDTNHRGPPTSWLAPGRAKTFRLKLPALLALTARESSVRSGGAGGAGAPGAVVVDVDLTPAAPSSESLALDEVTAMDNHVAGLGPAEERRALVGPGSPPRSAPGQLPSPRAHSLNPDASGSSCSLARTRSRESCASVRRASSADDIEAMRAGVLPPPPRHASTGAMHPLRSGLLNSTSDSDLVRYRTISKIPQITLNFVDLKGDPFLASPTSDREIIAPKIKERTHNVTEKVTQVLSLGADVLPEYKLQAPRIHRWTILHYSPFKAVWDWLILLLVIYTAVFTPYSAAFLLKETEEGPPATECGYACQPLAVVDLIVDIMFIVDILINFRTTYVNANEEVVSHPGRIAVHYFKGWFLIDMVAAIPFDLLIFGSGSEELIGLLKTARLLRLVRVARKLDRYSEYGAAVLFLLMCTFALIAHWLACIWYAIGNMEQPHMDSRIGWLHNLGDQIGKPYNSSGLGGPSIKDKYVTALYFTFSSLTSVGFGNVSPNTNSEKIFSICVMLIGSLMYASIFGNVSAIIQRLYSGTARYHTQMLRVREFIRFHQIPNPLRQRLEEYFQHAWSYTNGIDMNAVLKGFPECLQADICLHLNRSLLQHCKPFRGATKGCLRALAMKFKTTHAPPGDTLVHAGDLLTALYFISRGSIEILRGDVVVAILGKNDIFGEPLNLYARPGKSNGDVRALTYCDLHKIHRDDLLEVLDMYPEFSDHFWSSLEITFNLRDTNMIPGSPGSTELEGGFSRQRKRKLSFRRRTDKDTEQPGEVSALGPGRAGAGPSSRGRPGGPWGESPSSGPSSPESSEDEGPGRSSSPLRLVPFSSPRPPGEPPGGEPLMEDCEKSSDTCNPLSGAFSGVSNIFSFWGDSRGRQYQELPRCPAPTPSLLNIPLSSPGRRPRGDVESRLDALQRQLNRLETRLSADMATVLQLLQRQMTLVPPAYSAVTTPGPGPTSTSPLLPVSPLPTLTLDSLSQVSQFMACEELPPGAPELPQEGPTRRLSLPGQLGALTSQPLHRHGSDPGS

This experiment concerns the target human ether-à-go-go-related gene (hERG) potassium channel (human, UniProt Q12809). Briefly: primary screen, population patch clamp on CHO cells stably expressing hERG.
On to `CN1CCN(c2ccc(Cl)cc2NC(=O)CCN2C(=O)c3ccccc3C2=O)CC1`, for which the “hERG current change (%, negative = inhibition) at 10uM” value is -7.06%. On to `COc1ccc(CCN2C(=O)C(Oc3ccccc3C)C2c2ccc3c(c2)OCO3)cc1OC` (stereo not drawn), for which the “hERG current change (%, negative = inhibition) at 10uM” value is recorded as 6.21%. As for `CCN(c1ccccc1)S(=O)(=O)c1ccc(OCC(=O)Nc2cc(C)on2)cc1`, the figure is -7.31%; as for `Cc1ccc(-n2c(=O)c3sccc3n(CC(=O)NC3CCCCC3)c2=O)cc1`, 9.86%; as for `Cc1noc(/C=C/N(C)C)c1S(=O)(=O)N1CCCC(C(=O)NC2CCCCC2C)C1` (stereo not drawn), -25.5%. In the case of `COC(=O)c1ccc(C(=O)OC)c(NC(=O)CN2CCN(c3ccc(OC)cc3)CC2)c1` it was 11.5%; in that of `CCc1nc2ccc(N3CCN(C)CC3)cc2nc1CC`, 19.7%; in that of `CC(=O)c1ccc(-c2nnc(CCC(=O)N(C)Cc3c(C)nc4ccccn34)o2)s1`, -29.6%. As for `O=c1[nH]c(SCc2ccccc2)nnc1-c1ccccc1`, the figure is 8.58%; as for `Cn1c(=O)c2c(ncn2CC(=O)Nc2nccs2)n(C)c1=O`, 11.9%. For the compound `COc1ccc(-c2nc3cnccn3c2NC(C)(C)CC(C)(C)C)cc1O`, the “hERG current change (%, negative = inhibition) at 10uM” value is reported as -2.63%. In the case of `COC(=O)c1ccc(OCC(O)CNCC(c2ccc(OC)cc2)N(C)C)c(OC)c1` (stereo not drawn) it was -21.4%; in that of `O=C(NC(=S)Nc1cccc([N+](=O)[O-])c1)C1CCCCC1`, 13.9%; in that of `COc1ccc(/C=C2/C(=O)N(Cc3ccco3)C(=O)N(C(C)C)C2=O)cc1`, 7.27%.

For the compound `CCN(CC(=O)Nc1cc(Cl)ccc1Cl)C(=O)c1ccc(-n2cccn2)cc1`, the “hERG current change (%, negative = inhibition) at 10uM” value was -34.2%. As to `O=c1cc(-c2ccccc2)nc2nc(SCc3ccccc3)[nH]n12`, the “hERG current change (%, negative = inhibition) at 10uM” value is 3.62%.

`CC1CC(CCN)(c2ccccc2)C(C)CN1C.Cl` (stereo not drawn): the “hERG current change (%, negative = inhibition) at 10uM” value is given as 11.4%.

With `Cc1ccc(Nc2c(-c3ccc(N(C)C)cc3)nc3ncccn23)cc1`, the “hERG current change (%, negative = inhibition) at 10uM” value is given as 10.6%. In the case of `CC(C)OCCCNC(=O)c1ccncc1` it was -0.61%; in that of `COc1ccccc1-c1cc(C(=O)N/N=C/c2sccc2C)c2ccccc2n1`, -7.09%.

As to `CCN1CN(Cc2ccccc2)CNC1=S`, the “hERG current change (%, negative = inhibition) at 10uM” value was determined as 13.8%.

As for `C=CCNc1nc(-c2c(C)nc3sccn23)cs1`, the “hERG current change (%, negative = inhibition) at 10uM” value was -10.1%. In the case of `CSc1ccccc1NC(=O)CSc1n[nH]c(C)c1[N+](=O)[O-]` it was 4.74%; in that of `CCn1c(C)nc2cc(C(=O)N/N=C/c3ccccc3)ccc21`, -17.5%.
